# The list shows a part of the results. Single values of this set are uncertain.
# T1: MSN_FERM_1_P26038_1_322
# T1 chain: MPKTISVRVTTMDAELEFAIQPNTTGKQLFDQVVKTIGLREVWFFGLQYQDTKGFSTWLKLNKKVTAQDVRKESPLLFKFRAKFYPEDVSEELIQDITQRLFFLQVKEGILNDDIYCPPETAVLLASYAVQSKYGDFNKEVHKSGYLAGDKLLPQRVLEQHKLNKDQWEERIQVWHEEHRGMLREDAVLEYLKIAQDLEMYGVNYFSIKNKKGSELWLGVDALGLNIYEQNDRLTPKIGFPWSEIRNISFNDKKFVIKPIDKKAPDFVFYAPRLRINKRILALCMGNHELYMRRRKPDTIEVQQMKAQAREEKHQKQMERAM
# T2: RDX_FERM_1_P35241_5_295
# T2 chain: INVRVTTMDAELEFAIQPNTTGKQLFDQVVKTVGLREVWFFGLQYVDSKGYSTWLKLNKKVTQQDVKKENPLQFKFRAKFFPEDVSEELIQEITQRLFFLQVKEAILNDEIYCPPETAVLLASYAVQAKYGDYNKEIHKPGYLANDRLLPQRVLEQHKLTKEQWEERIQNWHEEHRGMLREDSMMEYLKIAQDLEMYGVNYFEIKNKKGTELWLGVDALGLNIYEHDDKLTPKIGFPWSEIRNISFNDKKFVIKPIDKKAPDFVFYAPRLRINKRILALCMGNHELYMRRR
# Target: T1, MSN_FERM_1_P26038_1_322
# Assay: mutation enrichment score (mutant vs wild-type peptide binding to bait); baits are purified protein domains named by gene / domain / UniProt id / residues; peptides come from disordered regions of human proteins; higher = mutation enhances binding relative to wild type
# Details: number of wild-type / mutant comparisons summed (bounds the score): 6; paper call: no_effect; wild-type window: …
row,Binder,mutation enrichment score
1,TSDSDQQAYLVQRGAEDRDWQQQRNIPIHSCPKCGEVLPDI [R545Q R545Q],2.6
2,SSRACDCDQQIDSCTYEAMYDIQSQAPSITESSTFGEGNLA [N736D N736D],-4
3,DELDCLIKGILYIDSVGFNGQSQCYYFENPADSEKCQKLPF [R357Q R357Q],-2
4,LAVHGAGNLVNTYYDFSKGIGHKKSDDRTLVDRILEPQDVV [D112G D112G],-4.2
5,LAVHGAGNLVNTYYDFSKGINHKKSDDRTLVDRILEPQDVV [D112N D112N],-5
6,QSMLQNDGKCCPFMESMLRYDVYGGENEVIPEVLRKSHSHF [E608D E608D],1.5
7,EEERRESHHLRSPAYSVSTIQPREDLLSPVQDADRFYRGIL [E839Q E839Q],-5
8,KSPDFEEVTDRSQLDISEPYEVYRIVPEEEQKCKLGVATAG [K108E K108E],-2
9,SGPGLSPGMVRANLPQSFQVNTSKAGVAPLQVKVQGPKGLV [D1474N D1474N],3
10,SEAEGESWYPTNMEELVTVDKVGEEEDFIVEPDIPELEEIV [E913K E913K],-2
11,IPHPHLHQYEVSSSLGYTSTGDVLENMMEPPQRDSSAPGRF [R555G R555G],2.9
12,NLVNTYYDFSKGIDHKKSDDGTLVDRILEPQDVVRFGVFLY [R119G R119G],-2
13,PPEELSMFQLPTLNFSPEQVDSVCETLEETGDIERLGRFLW [A93D A93D],5
14,EQSEKAAMYDIISSPSKDSTNLTLRLSRVRSSDMDQQEDMI [K357N K357N],-1.3
15,KLDELDCLIKGILYIDSVGFSGRSQCYYFENPADSEKCQKL [N355S N355S],-2
16,GEEVSIRNSPTDTILFIRAAHRVHSGTYQVTVRIENMEDKA [R1036H R1036H],-1
17,GEDYQYIERGETYCLYLPETLPEDGGEYMCKAVNNKGSAAS [F645L F645L],1
18,KHPDRFAYPIPHTTRPPKKDKENGKNYYFVSHDQMMQDISN [E782K E782K],-1
19,PKKDEENGKNYYFVSHDQMMEDISNNEYLEYGSHEDAMYGT [Q798E Q798E],-3
20,IHYLDIVDCKSYDTGEVKVTVENPEGVIEHKVKLEIQQRED [A1914V A1914V],4
21,GRSAGRSGRSGSFLYQVSTHKQSESAHGRTGTSTGGRQGSH [E2422K E2422K],5
22,GNLVNTYYDFSKGIDHKKSDGRTLVDRILEPQDVVRFGVFL [D118G D118G],-1.1
23,LHQSTYQRYDVDDPFSVEEGVSYATEGESQEDWGGPTEDKG [F708V F708V],4
24,CRPQENISSRWMVPTSVERLGEGGSIPKVLRSSVRVAQKGE [R1176G R1176G],4.3

# Target: T2, RDX_FERM_1_P35241_5_295
# Assay: as above
# Details: number of wild-type / mutant comparisons summed (bounds the score): 6; paper call: no_effect; wild-type window: …
row,Binder,mutation enrichment score
1,SSRACDCDQQIDSCTYEAMYDIQSQAPSITESSTFGEGNLA [N736D N736D],-5.6
2,LAVHGAGNLVNTYYDFSKGIGHKKSDDRTLVDRILEPQDVV [D112G D112G],-3.9
3,LAVHGAGNLVNTYYDFSKGINHKKSDDRTLVDRILEPQDVV [D112N D112N],-4
4,IPHPHLHQYEVSSSLGYTSTGDVLENMMEPPQRDSSAPGRF [R555G R555G],3
5,PPEELSMFQLPTLNFSPEQVDSVCETLEETGDIERLGRFLW [A93D A93D],3
6,EQSEKAAMYDIISSPSKDSTNLTLRLSRVRSSDMDQQEDMI [K357N K357N],0.085
7,GRSAGRSGRSGSFLYQVSTHKQSESAHGRTGTSTGGRQGSH [E2422K E2422K],2
8,APPEELSMFQLPTLNFSPEQGASVCETLEETGDIERLGRFL [V92G V92G],4
9,LHQSTYQRYDVDDPFSVEEGVSYATEGESQEDWGGPTEDKG [F708V F708V],2

# Target: MAP1LC3B_ATG8__Q9GZQ8_2_119
# Assay: as above
# Details: number of wild-type / mutant comparisons summed (bounds the score): 12; paper call: no_effect; wild-type window: …
row,Binder,mutation enrichment score
1,PYSARESLSEVQSLSSFQSELCDDNGYHWDTSDWMPSVPLP [S4375L S4375L],4
2,STIQVAPANYPNEDGFSPNNGDMFVDLPFPDDMDNDIGILM [D2023G D2023G],-3
3,HTTRSVSMQDEGKTHSITFKNLSIDDTSQIRVEAMGMSSEA [D12916N D12916N],0

# Same assay, conditions: number of wild-type / mutant comparisons summed (bounds the score): 6; paper call: no_effect; wild-type window: …
row,Binder,mutation enrichment score
1,YDADSDFEVLMKTAHGHLVPNRVDKDKEATKPEFNNHKDYA [D1357N D1357N],1
2,RERESLVKKKVAEYTILEGKFQKTLIDLEKREQQLASVESE [L712F L712F],-2
3,QLGLRRLLLLLSPQSPTHGLQSLATHTLHALTPLL [R404Q R404Q],-2
4,TLGWSKPVYDGGSAVTGYVVKIRQGEEEEWTTVSTKGEVRT [E28131K E28131K],-3
5,HSSCSSPSRDCQAERKEGSLLHSDDAGDYEQLFSSTQGEIS [P975L P975L],3.1

# Target: MDM2_p53-binding-domain__Q00987_17_125
# Assay: as above
# Details: number of wild-type / mutant comparisons summed (bounds the score): 16; paper call: enhanced; wild-type window: …
row,Binder,mutation enrichment score
1,DRYSVGLLDMTKQKEFFDVWLVLMGEVPPYSGPRTPDGREI [P293L P293L],7

# Target: NEDD4_WW_2_P46934_765_803
# Assay: as above
# Details: number of wild-type / mutant comparisons summed (bounds the score): 6; paper call: no_effect; wild-type window: …
# Chain of NEDD4_WW_2_P46934_765_803 (chain, as listed by the source): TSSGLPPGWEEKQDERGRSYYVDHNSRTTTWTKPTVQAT
row,Binder,mutation enrichment score
1,DRYSVGLLDMTKQKEFFDVWLVLMGEVPPYSGPRTPDGREI [P293L P293L],-3

# Target: SMURF2_WW_3_Q9HAU4_298_330
# Assay: as above
# Details: number of wild-type / mutant comparisons summed (bounds the score): 6; paper call: no_effect; wild-type window: …
row,Binder,mutation enrichment score
1,DRYSVGLLDMTKQKEFFDVWLVLMGEVPPYSGPRTPDGREI [P293L P293L],-5

# Target: WWTR1_WW__Q9GZV5_122_160
# Assay: as above
# Details: number of wild-type / mutant comparisons summed (bounds the score): 6; paper call: no_effect; wild-type window: …
# Chain of WWTR1_WW__Q9GZV5_122_160 (chain, as listed by the source): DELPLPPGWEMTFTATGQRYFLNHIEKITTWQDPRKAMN
row,Binder,mutation enrichment score
1,DRYSVGLLDMTKQKEFFDVWLVLMGEVPPYSGPRTPDGREI [P293L P293L],-2

# Target: MDM2_p53-binding-domain__Q00987_17_125
# Assay: as above
# Details: number of wild-type / mutant comparisons summed (bounds the score): 16; paper call: no_effect; wild-type window: …
row,Binder,mutation enrichment score
1,GTSLGPGLGPRVGPLLVRRGVTLPVPGPRVLETRPALQGLL [E129V E129V],2

# Target: MAP1LC3A_ATG8__Q9H492_2_121
# Assay: as above
# Details: number of wild-type / mutant comparisons summed (bounds the score): 18; paper call: enhanced; wild-type window: …
row,Binder,mutation enrichment score
1,KTNLAAYVPLLTQGWAEILVPRPTGNTSWLMSLENPLSPFS [R1200P R1200P],13

# Same assay, conditions: number of wild-type / mutant comparisons summed (bounds the score): 12; paper call: no_effect; wild-type window: …
row,Binder,mutation enrichment score
1,GHSKILGETSLMRTLCGTPTSLAPEVLVSVGTAGYNRAVDC [Y390S Y390S],-3
2,MAEPRQEFEVMEDHAGTYGLHDRKD [R5H R5H],4.5

# Target: MDM2_p53-binding-domain__Q00987_17_125
# Assay: as above
# Details: number of wild-type / mutant comparisons summed (bounds the score): 8; paper call: no_effect; wild-type window: …
row,Binder,mutation enrichment score
1,RQMQQQAATAQAAAAAQAAAMAGNIPGPGSVGGIAPAISLS [V465M V465M],-2
2,NDRLAVYIDRVRSLETENAGRRLRITESEEVVSREVSGIKA [L59R L59R],2

# Target: T2, RDX_FERM_1_P35241_5_295
# Assay: as above
# Details: number of wild-type / mutant comparisons summed (bounds the score): 12; paper call: no_effect; wild-type window: …
row,Binder,mutation enrichment score
1,NLVNTYYDFSKGIDHKKSDDGTLVDRILEPQDVVRFGVFLY [R119G R119G],-3.3
2,GNLVNTYYDFSKGIDHKKSDGRTLVDRILEPQDVVRFGVFL [D118G D118G],-3.1
3,TDTILFIRAARRVHSGTYQVMVRIENMEDKATLVLQVVDKP [T1046M T1046M],-2
4,TDTILFIRAARRVHSGTYQVRVRIENMEDKATLVLQVVDKP [T1046R T1046R],-2

# Target: T1, MSN_FERM_1_P26038_1_322
# Assay: as above
# Details: number of wild-type / mutant comparisons summed (bounds the score): 6; paper call: enhanced; wild-type window: …
row,Binder,mutation enrichment score
1,APPEELSMFQLPTLNFSPEQGASVCETLEETGDIERLGRFL [V92G V92G],6
2,FNFETFGNSMICLFQITTSADWDGLLAPILNSKPPDCDPNK [G1725D G1725D],6

# Target: USP7_MATH-TRAF__Q93009_53_206
# Assay: as above
# Details: number of wild-type / mutant comparisons summed (bounds the score): 10; paper call: enhanced; wild-type window: …
# Chain of USP7_MATH-TRAF__Q93009_53_206 (chain, as listed by the source): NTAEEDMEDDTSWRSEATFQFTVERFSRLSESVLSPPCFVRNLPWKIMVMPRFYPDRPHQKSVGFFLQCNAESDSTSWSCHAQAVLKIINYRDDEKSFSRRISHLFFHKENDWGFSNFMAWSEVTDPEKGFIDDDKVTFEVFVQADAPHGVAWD
row,Binder,mutation enrichment score
1,CRPQENISSRWMVPTSVERLGEGGSIPKVLRSSVRVAQKGE [R1176G R1176G],6

# Target: T1, MSN_FERM_1_P26038_1_322
# Assay: as above
# Details: number of wild-type / mutant comparisons summed (bounds the score): 12; paper call: no_effect; wild-type window: …
row,Binder,mutation enrichment score
1,TDTILFIRAARRVHSGTYQVMVRIENMEDKATLVLQVVDKP [T1046M T1046M],-2
2,TDTILFIRAARRVHSGTYQVRVRIENMEDKATLVLQVVDKP [T1046R T1046R],-2
